Common to all, as to experiment: Viability of human cancer cell lines after 72 h of drug (GDSC screen)
Compound in one assay: CC(=O)Nc1cccc(-n2c(=O)n(C3CC3)c(=O)c3c(Nc4ccc(I)cc4F)n(C)c(=O)c(C)c32)c1 [Trametinib]
As to conditions: top dose 1 µM. The procedure:
(§1)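 Human cancer cell lines in 384-well plates, medium with 10% serum, drug for 72 h over a 256-fold dose range (nine 2-fold or five 4-fold steps up to the top dose). Adherent lines were fixed and stained with the nucleic acid dye Syto60, suspension lines read with resazurin; signal relative to control wells, capped at 0 and 100%. One two-parameter sigmoid per drug and line, fitted in a mixed model over all curves with the slope shared within a line.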

Compound in the next assay: CCNC(=O)C[C@@H]1N=C(c2ccc(Cl)cc2)c2cc(OC)ccc2-n2c(C)nnc21 [I-BET-762]
As to conditions: top dose 20 µM; top dose inferred. The protocol:
as §1

Compound in another assay: CCc1cncnc1N1CCN(Cc2nc3ccc(C(F)(F)F)cc3[nH]2)CC1 [PF-4708671]
As to conditions: top dose 10 µM; top dose inferred. The protocol:
as §1

Compound in the next assay: COc1cc2nccc(Oc3ccc(NC(=O)Nc4cc(C)on4)c(Cl)c3)c2cc1OC [AV-951]
The following applies: top dose 0.128 µM; top dose inferred. The protocol:
as §1

Compound in a further assay: O=C(NC(COc1ccc2[nH]c(=O)[nH]c2c1)c1ccccc1)c1cccn(Cc2ccc(F)c(F)c2)c1=O [KIN001-244]
As to conditions: top dose 20 µM; top dose inferred. The procedure: as §1

One may read the pIC50 as the negative decadic logarithm of the IC50, by convention in mol/L.

pIC50: −log10 of the molar value. The IC50 comes from the fitted curve, where viability falls to half of the control; where the fit passes the top or lowest dose, that dose stands as a limit. AUC, from the same fit, is the share of area under the viability curve across the 256-fold dose range; values near 1 show little effect. For some assays here: An inferred top dose was calculated from the reported fits.

Take JHOS-3 (ovary, adherent): the AUC with Trametinib was 0.417; in the assay with I-BET-762, 0.944; in the assay with PF-4708671, 0.972; in the assay with AV-951, 0.983; with KIN001-244, 0.942. For the same cell line, the pIC50 was 7.46 in the assay with Trametinib; under 4.70 with I-BET-762; under 5.00 with PF-4708671; under 6.89 with AV-951; under 4.70 in the assay with KIN001-244.
As for JHOS-4 (ovary, adherent), in the assay with Trametinib, the AUC was determined as 0.699 and the negative logarithm of the IC50 (pIC50) was 6.53. In the assay with PF-4708671, the AUC was 0.972 and the negative logarithm of the IC50 (pIC50) was under 5.00.
For Jurkat (T-cell leukaemia, suspension) the same measures were 0.975, under 6.00, 0.917 and under 5.00.
Take “KARPAS-1106P (B-cell lymphoma, suspension)”: in the assay with Trametinib, the AUC was 0.993 and the pIC50 is under 6.00. In the assay with PF-4708671, the AUC was 0.992 and the negative logarithm of the IC50 (pIC50) was under 5.00.
Taken in the same sequence, the figures for KATOIII (stomach, semi-adherent) were 0.795, 6.38, 0.948 and under 5.00.
As for KMS-11 (myeloma, suspension), the AUC with Trametinib worked out at 0.97; with PF-4708671, 0.962; with AV-951 it was 0.988; with KIN001-244, 0.852. Moreover, the pIC50 is under 6.00 with Trametinib, under 5.00 with PF-4708671, under 6.89 with AV-951 and 4.92 in the assay with KIN001-244.
For the cell line “KNS-62 (lung squamous cell carcinoma, adherent)”, in the assay with Trametinib, the AUC amounted to 0.233 and the negative logarithm of the IC50 (pIC50) was 8.15. Also, in the assay with PF-4708671, the AUC came to 0.903 and the negative logarithm of the IC50 (pIC50) is under 5.00.
As to KYAE-1 (oesophagus, suspension), the AUC with Trametinib is 0.897; with I-BET-762, 0.921; with PF-4708671 it was 0.895; with AV-951, 0.974; with KIN001-244 it was 0.652. In addition, the negative logarithm of the IC50 (pIC50) in the assay with Trametinib is under 6.00; with I-BET-762, under 4.70; with PF-4708671 it was under 5.00; in the assay with AV-951 it was under 6.89; in the assay with KIN001-244, 5.46.
Regarding MEL-HO (melanoma, adherent), in the assay with Trametinib, the AUC is 0.072 and the negative logarithm of the IC50 (pIC50) was over 8.41. In the assay with PF-4708671, the AUC worked out at 0.982 and the negative logarithm of the IC50 (pIC50) was under 5.00.
Taken in the same sequence, the figures for “MHH-CALL-2 (B-cell leukaemia, suspension)” were 0.997, under 6.00, 0.959 and under 5.00.
Taken in the same sequence, the figures for MKN7 (stomach, adherent) were 0.843, under 6.00, 0.932 and under 5.00.
For “MOLM-16 (acute myeloid leukaemia, suspension)” the same measures were 0.816, 6.33, 0.894 and 5.03.
With “MOLT-16 (T-cell lymphoblastic leukaemia, suspension)”, the AUC was 0.904 in the assay with Trametinib and 0.931 in the assay with PF-4708671. Also, the pIC50 with Trametinib was 6.07; with PF-4708671 it was under 5.00.
For the cell line NCC010 (kidney, adherent), the AUC in the assay with Trametinib turned out to be 0.882; with PF-4708671 it was 0.985. Besides, the negative-log IC50 (pIC50) with Trametinib was under 6.00; with PF-4708671, under 5.00.
For the cell line NCC021 (kidney, adherent), the AUC with Trametinib turned out to be 0.823; with I-BET-762 it was 0.96; in the assay with PF-4708671 it was 0.985; with AV-951, 0.983; in the assay with KIN001-244 it was 0.829. Also, the negative-log IC50 (pIC50) with Trametinib was 6.14; with I-BET-762 it was under 4.70; with PF-4708671, under 5.00; with AV-951, under 6.89; with KIN001-244 it was 4.82.
Turning to “NCI-H146 (small cell lung carcinoma, suspension)”, the AUC in the assay with Trametinib was 0.993; in the assay with PF-4708671 it was 0.986. The pIC50 with Trametinib was under 6.00; with PF-4708671, under 5.00.
For “NCI-H508 (large intestine, semi-adherent)” the same measures were 0.916, 0.975, under 6.00 and under 5.00.
Taken in the same sequence, the figures for NCI-H835 (lung carcinoid, suspension) were 0.979, 0.987, under 6.00 and under 5.00.
On to NCI-H929 (myeloma, suspension), for which, in the assay with Trametinib, the AUC was found to be 0.191 and the pIC50 is 8.04. In the assay with PF-4708671, the AUC was determined as 0.964 and the pIC50 is under 5.00.
For the cell line “NCI-H1105 (small cell lung carcinoma, suspension)”, in the assay with Trametinib, the AUC was found to be 0.981 and the negative logarithm of the IC50 (pIC50) is under 6.00.
“NCI-H1341 (small cell lung carcinoma, suspension)”: the AUC with Trametinib came to 0.937; in the assay with PF-4708671 it was 0.972. Moreover, the negative-log IC50 (pIC50) in the assay with Trametinib was under 6.00; with PF-4708671 it was under 5.00.

Source of the values: the supplement of paper PMC4967469.
